Our source for the binding signal values is publication PMC5836133.

The list shows a part of the results. At the low end of the ranking the order means little.

The test system of the test is T1, GST-NbGlk1(82-244).
T1 sequence: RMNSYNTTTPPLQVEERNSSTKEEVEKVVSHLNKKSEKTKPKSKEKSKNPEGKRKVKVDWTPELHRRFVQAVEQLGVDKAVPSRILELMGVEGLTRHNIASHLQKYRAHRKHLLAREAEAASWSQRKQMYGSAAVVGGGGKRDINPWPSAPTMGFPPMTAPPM
Put plainly: protein-binding microarray.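 Note: rank-based score ranging −0.5 to +0.5 with E above 0.45 taken as significant binding.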 To be noted: NbGlk1 is a Golden2-like transcription factor of Nicotiana benthamiana; high values mean tight binding; most listed sequences are background and not binding sites; double strand, one strand shown.
Consider AGTTAACC, for which the binding signal is -0.154 E-score. As for AAGGCGAG, the binding signal is -0.216 E-score. AGTTCGCG came in with a binding signal of -0.113 E-score. Take AACTTCGG: the binding signal is -0.222 E-score. In turn, CACTGTCA had a binding signal of -0.065 E-score. As for CACCGCTC, the binding signal is -0.204 E-score. The sequence AATCGGAT yielded a binding signal of 0.357 E-score. For the sequence AATCGCAG, the binding signal was 0.224 E-score.

In turn, AGGACCTA had a binding signal of -0.103 E-score. Sequence AGAATGAA yielded a binding signal of -0.0682 E-score. Consider AGAAATAC, for which the binding signal is 0.117 E-score.

Regarding ACGTCTGA, the binding signal was -0.146 E-score. Turning to ATGATGGA, the binding signal came to 0.0836 E-score. AGCAGAAT returned a binding signal of 0.255 E-score. In the case of ACAATCCG, the binding signal turned out to be 0.334 E-score.

AGGGCTTC showed a binding signal of -0.32 E-score. ATAAGTGC: the binding signal is 0.0522 E-score. Turning to CACTCCAC, the binding signal is -0.121 E-score. The sequence AAGTCACT showed a binding signal of -0.158 E-score. The value for ACACAACG was 0.0492 E-score; that for CAATCCAA was 0.298 E-score; that for ATACGCAC was 0.211 E-score. Turning to ATGGGCGG, the binding signal was -0.145 E-score. Next, ACTCTTCT: -0.113 E-score; CACGAATG: -0.016 E-score. For the sequence AGAAAACT, the binding signal is -0.205 E-score. On to AGATCGAC, for which the binding signal was determined as 0.113 E-score.

Turning to ATTCAACG, the binding signal amounted to 0.0303 E-score.

AAGCTATA showed a binding signal of 0.0749 E-score.

With AACTTGCG, the binding signal was -0.0258 E-score. As for AGGGCTCA, the binding signal was -0.317 E-score. As to AGAGTGGC, the binding signal is -0.286 E-score. Next, AAGAAGCT: -0.182 E-score; CACGCCAA: -0.0798 E-score; AAAGATTT: 0.427 E-score.

Sequence ACGGGTTC returned a binding signal of -0.257 E-score. As to AGCAGGAA, the binding signal is -0.125 E-score. In turn, ACTGTCAA registered a binding signal of 0.101 E-score. The value for CAATAGCG was 0.0213 E-score. The sequence ATAGCTCG gave a binding signal of 0.0253 E-score. As for ATCAATTC, the binding signal worked out at 0.0438 E-score. The sequence AGAGAGCA had a binding signal of -0.169 E-score.

In turn, AAGCGCAC registered a binding signal of -0.235 E-score. With AAAAAGCA, the binding signal was -0.0897 E-score. Consider AAACTGGA, for which the binding signal is 0.00977 E-score.

As to ACTAAGCT, the binding signal is -0.0885 E-score. AACACTAC came in with a binding signal of -0.0479 E-score. Next, CACGATTA: 0.202 E-score; ATAACCCG: 0.00934 E-score.

In turn, ACTAGCTC registered a binding signal of -0.0228 E-score.

Sequence CAAAAAAA gave a binding signal of 0.148 E-score. The value for ACAAGCGG was -0.116 E-score; that for ATAAGAGC was -0.00401 E-score; that for AACCTACA was -0.1 E-score. For the sequence AACGAGAA, the binding signal worked out at 0.122 E-score.

AACCCACG returned a binding signal of -0.18 E-score. AGGAGTCC showed a binding signal of -0.265 E-score. Next, AGACGGTA: -0.171 E-score; ATACTAAC: 0.0388 E-score. AAACACGT: the binding signal was 0.0292 E-score. Next, AAATTGCT: 0.145 E-score. For ATACAACA, the binding signal came out at 0.131 E-score.

AGAGGTAT returned a binding signal of -0.081 E-score. On to ATGTAGAC, for which the binding signal was -0.0436 E-score. Take CAATTGAA: the binding signal worked out at 0.0472 E-score.

The sequence AACACATT had a binding signal of 0.0334 E-score.

Consider AGGATATC, for which the binding signal came out at 0.469 E-score. As for AACTGGAA, the binding signal amounted to 0.0488 E-score. With ATCCGAAA, the binding signal came to 0.249 E-score. In turn, AAGAGGTC registered a binding signal of -0.2 E-score. For the sequence AAGCTGGA, the binding signal was -0.0621 E-score. Take ACTGAGCG: the binding signal is -0.0398 E-score. The value for ACCGCAGC was -0.0974 E-score; that for AGTTGTAG was -0.00706 E-score; that for ACCCAGAT was 0.247 E-score. Turning to ACGAACCT, the binding signal was -0.103 E-score. Take ATGGCAAC: the binding signal was -0.198 E-score. In the case of ACCGCGTC, the binding signal was -0.249 E-score. Next, AAACGGCA: -0.11 E-score; AATCGGGA: 0.301 E-score; ACACGACT: -0.16 E-score. Next, ACTTCGAA: 0.103 E-score; ATAGACTG: -0.231 E-score.

AACTAAAT: the binding signal came to 0.113 E-score. ATGGAGCA displayed a binding signal of -0.17 E-score. ATACTGGC: the binding signal was -0.0649 E-score. As to CACCTAGA, the binding signal was 0.0734 E-score.

The sequence ACGATTCC gave a binding signal of 0.4 E-score. Consider AAGCGCTA, for which the binding signal is -0.226 E-score. In turn, AGACGCTC came in with a binding signal of -0.182 E-score. Take AAATAACA: the binding signal came out at 0.149 E-score. CACGCTAA had a binding signal of -0.181 E-score. Consider ACCATCAA, for which the binding signal is -0.119 E-score.

Sequence ATTGCACA registered a binding signal of 0.275 E-score. In turn, ATGGTATG gave a binding signal of -0.0619 E-score. AGGACGTG: the binding signal was -0.179 E-score. Next, ACAGTGAA: -0.181 E-score; AAACACAG: 0.0399 E-score; ATCGTGGG: 0.137 E-score. Next, AAGGTACA: -0.0699 E-score; ATAGACAG: 0.00333 E-score; AGGTAGCC: -0.283 E-score. Sequence CAGACGCA returned a binding signal of -0.036 E-score. AGAAGCGG showed a binding signal of -0.176 E-score. Take AACGCTAC: the binding signal is -0.0778 E-score.

In turn, AAAGGAAT returned a binding signal of 0.27 E-score.

Take AGATACTG: the binding signal is 0.33 E-score. AATATGAG: the binding signal amounted to 0.214 E-score.

In the case of ATATTAGA, the binding signal was found to be 0.212 E-score. Take AAAGTTGG: the binding signal was -0.0352 E-score.

As for CACGACAC, the binding signal was -0.0798 E-score. ACCTGTAT showed a binding signal of 0.138 E-score. Next, AGTAGTGG: -0.0593 E-score; AATACCGC: 0.0854 E-score. Consider AGTAGCGA, for which the binding signal turned out to be 0.0444 E-score. ACAGGGCA had a binding signal of -0.158 E-score. AATGACGC came in with a binding signal of -0.162 E-score.

In turn, ACAGGACA yielded a binding signal of -0.104 E-score.

The sequence AAACAAAT had a binding signal of 0.18 E-score. AAGCCCAG came in with a binding signal of -0.297 E-score. As for CAAAGGTA, the binding signal is -0.157 E-score. In turn, AAATTTGG returned a binding signal of 0.147 E-score. AGGCTATA had a binding signal of -0.142 E-score.

Regarding AGTTAGCC, the binding signal was -0.145 E-score. ATGCTCGC came in with a binding signal of -0.175 E-score. ACGTAGCA showed a binding signal of -0.0216 E-score. Next, ACTGCTGC: -0.23 E-score. AGTAAGAC had a binding signal of -0.0166 E-score.

ACTTATCC showed a binding signal of 0.135 E-score. ACCACGGT yielded a binding signal of -0.116 E-score. Next, ATGGTCTC: -0.151 E-score.

AAGGCCAG came in with a binding signal of -0.274 E-score. Next, AATCAAGC: 0.22 E-score. Take ACTCCGTC: the binding signal is -0.234 E-score. The value for AAGGGTGG was -0.153 E-score; that for AAAGGGAC was -0.168 E-score. For the sequence AATGGAAA, the binding signal turned out to be 0.0668 E-score. In the case of ACGTACGC, the binding signal was -0.21 E-score. AAAGTAGG gave a binding signal of 0.0754 E-score. Consider ACACATTG, for which the binding signal was -0.0765 E-score.

Sequence ACCTGCCT had a binding signal of -0.239 E-score. The value for AGATTACT was 0.429 E-score; that for AGGTGGCC was -0.274 E-score. Consider ATTCGCAA, for which the binding signal was 0.352 E-score. With AGGCTCCG, the binding signal is -0.281 E-score. AACTGGCG displayed a binding signal of -0.154 E-score.

AGTCCAGG came in with a binding signal of -0.235 E-score. In the case of ACTCACCT, the binding signal was -0.0573 E-score. Next, ATCTACTA: 0.341 E-score; ATGATCAA: -0.00692 E-score; ATCGCTAA: 0.157 E-score. Turning to ACCGTACT, the binding signal is -0.0955 E-score. In the case of AAATGTGC, the binding signal was -0.0665 E-score. In turn, AAGCGAGA returned a binding signal of -0.0261 E-score. ATGTTTAG showed a binding signal of 0.0551 E-score.

In turn, ACTAACCC registered a binding signal of -0.303 E-score. ACTGTCTG came in with a binding signal of -0.072 E-score. Take AAGGGCCT: the binding signal was -0.207 E-score. The sequence AATAGCGG registered a binding signal of -9.73e-05 E-score.

The sequence CAATCGAC gave a binding signal of 0.0642 E-score. Consider AAGCACGT, for which the binding signal was determined as 0.0234 E-score. For the sequence ATTAGCTA, the binding signal was -0.0867 E-score.

For the sequence ACTTATAA, the binding signal was -0.0101 E-score. Take CAGCGCTA: the binding signal is -0.155 E-score. For the sequence ATTCTCCG, the binding signal was determined as 0.338 E-score. Sequence ATCGACAT gave a binding signal of 0.00739 E-score. Sequence ATAGCTGG yielded a binding signal of -0.149 E-score. Next, ATATGTAA: 0.132 E-score; AGATAGTG: 0.151 E-score; AGGTATGC: -0.0783 E-score. As for ATGCTCAG, the binding signal was -0.0893 E-score. ACCATTTG displayed a binding signal of -0.13 E-score.
